In all, about 310,000 compounds went through this assay and about 14,000 (4.5%) showed an effect of 50% or more. Effects have a minus sign here. This is one part of the list.
molecular target: human ether-à-go-go-related gene (hERG) potassium channel (human, UniProt Q12809); assay: primary screen, population patch clamp on CHO cells stably expressing hERG
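Further: peak tail current of the secondary pulse compared with the same well before compound.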

Sequence of human ether-à-go-go-related gene (hERG) potassium channel (Q12809 whole entry, looked up): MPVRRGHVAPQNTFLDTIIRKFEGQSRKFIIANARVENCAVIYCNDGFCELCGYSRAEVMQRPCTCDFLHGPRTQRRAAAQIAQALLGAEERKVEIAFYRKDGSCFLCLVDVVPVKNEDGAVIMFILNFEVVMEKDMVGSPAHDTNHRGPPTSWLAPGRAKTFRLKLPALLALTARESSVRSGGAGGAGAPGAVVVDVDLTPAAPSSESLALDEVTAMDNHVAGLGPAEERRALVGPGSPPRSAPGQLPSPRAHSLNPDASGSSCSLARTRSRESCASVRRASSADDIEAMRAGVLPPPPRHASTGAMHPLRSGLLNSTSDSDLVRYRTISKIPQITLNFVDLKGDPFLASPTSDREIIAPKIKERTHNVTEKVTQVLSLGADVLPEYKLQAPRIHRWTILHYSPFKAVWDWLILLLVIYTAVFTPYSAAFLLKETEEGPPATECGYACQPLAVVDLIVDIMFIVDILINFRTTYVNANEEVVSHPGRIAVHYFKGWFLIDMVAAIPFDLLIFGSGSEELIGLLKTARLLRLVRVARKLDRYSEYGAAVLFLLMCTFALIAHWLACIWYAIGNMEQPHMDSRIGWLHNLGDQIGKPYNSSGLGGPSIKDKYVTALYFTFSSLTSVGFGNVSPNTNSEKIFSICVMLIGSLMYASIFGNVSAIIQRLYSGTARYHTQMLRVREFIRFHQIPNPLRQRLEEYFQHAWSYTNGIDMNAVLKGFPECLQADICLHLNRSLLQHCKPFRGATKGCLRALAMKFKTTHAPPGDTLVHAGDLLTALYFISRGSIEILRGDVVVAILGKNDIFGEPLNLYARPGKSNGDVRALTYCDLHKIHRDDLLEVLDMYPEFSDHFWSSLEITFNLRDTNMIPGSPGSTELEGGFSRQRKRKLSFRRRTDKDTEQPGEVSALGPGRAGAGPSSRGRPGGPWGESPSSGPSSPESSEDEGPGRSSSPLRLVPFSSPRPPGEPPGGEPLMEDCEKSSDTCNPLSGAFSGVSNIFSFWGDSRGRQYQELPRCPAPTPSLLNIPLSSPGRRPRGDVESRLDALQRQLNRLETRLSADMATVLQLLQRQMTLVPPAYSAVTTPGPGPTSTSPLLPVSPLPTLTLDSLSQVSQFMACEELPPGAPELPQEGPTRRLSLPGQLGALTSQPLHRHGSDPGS

Compound | hERG current change (%, negative = inhibition) at 10uM [%]
Cc1ccccc1NC(=O)c1ccc(F)c(S(=O)(=O)N2CCCCC2)c1 | 20.4
C=CCn1c(SCC(=O)Nc2ccc(F)cc2F)nnc1-c1cnccn1 | -58.8
CSc1ccc(/C=C(\C#N)C(=O)NC2CCCCC2C)cc1 (stereo not shown) | -21.7
CCOC(=O)Cc1csc(NC(=O)CC(C)(C)C)n1 | 9.76
COc1cc(Cl)c(NS(=O)(=O)c2cc3[nH]c(=O)c(=O)[nH]c3cc2C)c(OC)c1 | 12.4
CCOC(=O)C1CCCN(c2nc3ccccc3nc2C(C#N)C(=O)OC(C)COC)C1 (stereo not shown) | -55.2
CCO[C@H]1OC(C(=O)N2CCOCC2)=C[C@@H](C)[C@@H]1CCCO | 12.5
COc1ccc(-n2cc(CNC(C)c3ccncn3)c(-c3cccc(F)c3)n2)cc1 (stereo not shown) | -59.4
CC1CCCC(NC(=O)COC(=O)Cc2ccc(Br)cc2)C1C (stereo not shown) | 17.9
Cc1c(C(=O)N2CCC(C)CC2)cccc1[N+](=O)[O-] | 26.1
Cc1ccc(C2(C)NC(=O)N(CC(=O)NNC(=O)c3ccccc3F)C2=O)cc1 (stereo not shown) | -5.29
CCOC(=O)C1=C(C)NC(=O)CC1c1ccccc1OC (stereo not shown) | 7.62
CN(C)c1ccc(C(=O)OCc2ccccc2)cc1 | 17.3
COc1ccccc1NC(=O)Cn1c(=O)oc2cc(S(=O)(=O)N3CCCC3)ccc21 | 16.6
N#Cc1c(Cl)cccc1-n1ccnc1 | 3.7
COc1cccc2[nH]c(=O)c(-c3ccccc3)cc12 | 6.1
CC(C)c1ccccc1NC(=O)CC1(CC(=O)O)CCCC1 | -2.8
CCc1cc(C)cc(OCCOc2ccccc2/C=N/NC(C)=O)c1 | 11.6
COc1cccc(OCC(=O)O/N=C(\N)c2ccc(OC)c(OC)c2)c1 | -3.46
CC(=O)C1=C(O)C(=O)N(CCN2CCOCC2)C1c1ccc(N(C)C)cc1.Cl (stereo not shown) | 3.73
CCOCCCn1c(SCC(=O)Nc2cc(C(C)(C)C)nn2-c2ccccc2)nc2ccccc2c1=O | -43.3
O=C1Nc2ccc(S(=O)(=O)NCc3ccco3)c3cccc1c23 | -16.2

Compound | hERG current change (%, negative = inhibition) at 10uM [%]
CC1=CC2=NC(=O)/C(=C\c3cc(C)n(-c4ccccc4F)c3C)C(=N)N2O1 | -4.59
CN(C)CC(NC(=O)c1cccc(S(=O)(=O)Nc2ccc3c(c2)OCO3)c1)c1ccccc1 (stereo not shown) | -14.8
COc1ccccc1Nc1nc(C)cc(C)c1C(N)=O | 1.92
CCN(CC)c1ccc2cc(C(=O)Nc3ccccn3)c(=O)oc2c1 | 12.1
COc1ccc(-c2cc(C(=O)NCc3cccnc3)no2)cc1 | -13.5
Cc1cc(C(=O)COC(=O)c2ccc[nH]c2=O)c(C)n1-c1ccc(Br)cc1 | 1.63
CC1(C)CC(NC(=O)CCc2ccccc2)CC(C)(C)N1.Cl | 2.05
Cc1ccccc1N(C(=O)Cn1nnc2ccccc21)C(C(=O)NCc1ccco1)c1ccncc1 (stereo not shown) | -4.4
CC(Sc1nnc(C2CC2)n1C1CC1)C(=O)Nc1cccc(S(=O)(=O)N(C)C)c1 (stereo not shown) | -19.5
COc1ccc(CNC(=O)COC(=O)CCc2c[nH]c3ccccc23)cc1 | 35.6
Cc1nc(Nc2nc(CSc3nc4ccccc4[nH]3)cc(=O)[nH]2)nc2ccccc12 | -1.19
COc1cccc(NC(C)C(=O)Nc2cc([N+](=O)[O-])ccc2Cl)c1 (stereo not shown) | 1.44
O=C(Nc1ccc(N2CCCCC2)cc1)c1ccc2c(c1)OCCO2 | -4.14
C/C(=N\O)C1/C(=N/O)CC2C1C2(C)C (stereo not shown) | -0.279
O=C(O)c1cncc(C#CCC2CCCCC2)c1 | -0.778
CC(=O)c1ccc(NC(=O)c2ccccc2Sc2ncnc3sc(C)c(C)c23)cc1 | -24.9
CCOc1cc(C(=O)NC)cc(Br)c1OCc1ccccc1 | 5.9
COc1ccc(CN(CC(=O)NCc2ccc(F)cc2)C(=O)CCC(=O)Nc2cc(C)ccn2)cc1 | -27.4
CCCCOc1ccc(C(C)=O)cc1Cc1c(O)[nH]c(=S)[nH]c1=O | 14.7
O=C(COC(=O)c1cc([N+](=O)[O-])ccc1NCc1ccccc1)NC1CCCc2ccccc21 (stereo not shown) | 15.6
O=C(Nc1cccnc1)c1cccnc1Cl | 4.09
c1ccc(-c2noc(-c3cccnc3)n2)cc1 | -0.69

Compound | hERG current change (%, negative = inhibition) at 10uM [%]
CN(C)CCCN=Cc1c(O)n(CCc2ccc(F)cc2)c(=O)[nH]c1=O | 15.2
CCN(CC)S(=O)(=O)c1cccc(-c2nnc(SCc3nnc(-c4cccs4)o3)n2N)c1 | -44.3
CCc1ccc(N2C(=O)C3C(C2=O)N2CCCN2C3c2ccccc2)cc1 (stereo not shown) | 18.1
CCOc1ccccc1NC(=O)COn1nnc2ccc(Cl)cc21 | -1.35
S=C(NCCc1ccccc1)NCc1ccccc1Cl | -8.85
CCOc1ccccc1N=CC1=C(O)CC(c2ccccc2)CC1=O (stereo not shown) | 6.05
CN(C)S(=O)(=O)c1cccc(NC(=O)COC(=O)/C=C/c2ccco2)c1 | -26.6
COC(=O)Cc1c(C)c2ccc(OC3CCCCC3=O)c(C)c2oc1=O (stereo not shown) | 3.77
Cc1ccc(C(=O)C[n+]2cccc3cc(C)ccc32)cc1.[Br-] | -31.7
CCOc1ccc(N2C(=O)CC(Sc3nc4ccc(OCC)cc4s3)C2=O)cc1 (stereo not shown) | 16.9
CC(=O)Nc1ccccc1-c1ccc(C)o1 | 6.02
Cc1ccc(O)c(C(=O)c2cc(C(=O)NCCc3ccccc3)c(=O)n(CCc3ccccc3)c2)c1 | -2.01
Cc1ccc(OCC(=O)NC(=S)Nc2cccc(NC(=O)c3ccc(Cl)cc3Cl)c2)cc1 | 20
CC(OC(=O)c1ccc(Br)c(S(=O)(=O)N2CCOCC2)c1)C(=O)NC1CCCCC1C (stereo not shown) | -49.9
COc1ccccc1/C=N/NC(=O)c1ccc(CN2C(=O)c3cccc4cccc2c34)cc1 | 2.35
Cc1ccc2nc(SCC(=O)NC3CCCC3)[nH]c2c1 | 6.86
CCOc1cc(/C=N/NC(=O)CSc2cccc3cccnc23)ccc1O | 9.6
COc1ccc(CCNC(=O)c2cc3c(=O)n4cccc(C)c4nc3n(CC3CCCO3)c2=N)cc1 (stereo not shown) | -75.2
CC(C)(C)Cc1nnc(NC(=O)c2ccco2)s1 | 5.12
CSc1ccc(S(=O)(=O)Nc2ccc3c4c(cccc24)CC3)cc1 | 3.32
CCOC(=O)N1CCC(=NNC(N)=O)CC1 | 19
O=C1CSC(=Nc2cccc(Cl)c2Cl)N1 | 19.1

Compound | hERG current change (%, negative = inhibition) at 10uM [%]
COc1ccccc1NC(=S)NNC(=O)c1ccccc1 | -1.04
Cc1ccc(S(=O)(=O)Nc2ccccc2C=Nc2cccc(C)c2C)cc1 | 3.56
c1coc(CNc2nc(-c3cccs3)cs2)c1 | -9.83
NC(N)=N/N=C/c1cccc(Cl)c1Cl | -11.3
NC(=O)COC(=O)c1ccc(NS(=O)(=O)c2ccc3c(c2)OCCO3)cc1 | 3.37
Cc1c(Cl)cccc1NC(=O)CSC(C)c1nc2ccccc2c(=O)[nH]1 (stereo not shown) | 10.5
Cc1cccc(OCC(=O)N2CCN(C(=O)c3ccco3)CC2)c1 | -6.95
COc1ccc(N2CCN(CCCNC(=O)Cn3c(=O)c4cccn4c4cccnc43)CC2)cc1 | -57.2
CCOc1ccc(C(C)(C)C)cc1S(=O)(=O)N1CC(C)OC(C)C1 (stereo not shown) | -4.79
CCCOc1ccc(N2C(=O)CC(N(CCc3ccc(OC)c(OC)c3)C(=O)c3ccccc3)C2=O)cc1 (stereo not shown) | -74.9
O=C(CCC(=O)N1CCN(c2ccccc2F)CC1)c1ccc(F)cc1 | -35.4
O=C(NN(c1ccccc1)c1ccccc1)c1ccc([N+](=O)[O-])o1 | 1.01
CCCc1nc(SCC(=O)O)c2sc(=S)n(-c3ccccc3)c2n1 | 3.76
CCN1/C(=C\C=C(C(C)=O)C(C)=O)Sc2ccccc21 | -2.64
COc1ccc(NC(=O)c2ccc(S(=O)(=O)N3CCCCCC3)cc2)c(OC)c1 | -8.76
Cc1ccc(COC(=O)c2cc([N+](=O)[O-])ccc2N2CCOCC2)cc1 | -53.7
CC(=O)c1cnc(SCC(=O)O)nc1C | 21.1
CCOC(=O)Cc1cnc(NC(=O)CSc2nc3ncnc(N)c3[nH]2)s1 | 16.6
Cc1c(C(=O)N2CCN(c3ccc(F)cc3)CC2)sc2ncnc(N3CCN(c4ccccn4)CC3)c12 | -65.1
Cc1cc(C)c(S(=O)(=O)N(C)CC(=O)NCCN2CCOCC2)c(C)c1 | 1.24
CCOC(=O)N(C)c1ccc(C(O)(C(=O)OCC)C(F)(F)F)cc1 (stereo not shown) | -2.29
COc1cc2oc3ccc(C#Cc4ccc(N)cc4)cc3c(=O)c2cc1OC | 6.49

From publication PMC4336329 (PLoS ONE, 2015)
